Assay results published in the supplement of paper PMC4604168 (melanoma cell lines).
This is one part of the list. Many values rest on one well or one pass, so single values are uncertain.

Columns and labels:
Experiment in all cases: cell count relative to DMSO control; melanoma cells; higher = more viable cells
Conditions in all cases: library dose: low library concentration; 72 h
MZ2-MEL = tested on: MZ2-MEL
MeWo = tested on: MeWo
RPMI7951 = tested on: RPMI7951
RVH-421 = tested on: RVH-421
SkMel28 = tested on: SkMel28
SkMel30 = tested on: SkMel30
SkMel5 = tested on: SkMel5
UACC257 = tested on: UACC257
UACC62 = tested on: UACC62
WM115 = tested on: WM115
WM1716 = tested on: WM1716
WM1745 = tested on: WM1745
WM3526 = tested on: WM3526
WM3619 = tested on: WM3619
WM451Lu = tested on: WM451Lu
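Also: cell number obtained by counting DAPI-stained nuclei in high-throughput microscope images with image analysis software, screen run in 1,536-well plates.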

| SMILES | cell count (MZ2-MEL) [%] | cell count (MeWo) [%] | cell count (RPMI7951) [%] | cell count (RVH-421) [%] | cell count (SkMel28) [%] | cell count (SkMel30) [%] | cell count (SkMel5) [%] | cell count (UACC257) [%] | cell count (UACC62) [%] | cell count (WM115) [%] | cell count (WM1716) [%] | cell count (WM1745) [%] | cell count (WM3526) [%] | cell count (WM3619) [%] | cell count (WM451Lu) [%] |
| --- | --- | --- | --- | --- | --- | --- | --- | --- | --- | --- | --- | --- | --- | --- | --- |
| COc1cc(Nc2ncc(F)c(Nc3ccc4c(n3)NC(=O)C(C)(C)O4)n2)cc(OC)c1OC [Tamatinib] + Cc1cc(SCc2sc(-c3ccc(C(F)(F)F)c(F)c3)nc2C)ccc1OCC(=O)O [GW0742] (first compound 0.4 µM, partner dose 2 µM) | 96 | 84.8 | 69.1 | 110 | 97.6 | 90.1 | 86.6 | 76.6 | 77.4 | 96.7 | 101 | 77 | 82.7 | 99 | 84.6 |
| O=C(Oc1ccc([N+](=O)[O-])cc1)N1CCC(C(O)(c2ccc3c(c2)OCO3)c2ccc3c(c2)OCO3)CC1 + CCCCCCCCCCCC1=C(O)C(=O)C=C(O)C1=O [Embelin] (first compound 1 µM, partner dose 1.2 µM) | 98.7 | 121 | 103 | 111 | 89.3 | 106 | 94.7 | 90.4 | 106 | 107 | 91.1 | 104 | 88.5 | 90.7 | 114 |
| COc1ccc2c(c1)CCC1C2CCC2(C)C(NCCCCCCN3C(=O)C=CC3=O)CCC12 (stereo not given) + O=C(Oc1ccc([N+](=O)[O-])cc1)N1CCC(C(O)(c2ccc3c(c2)OCO3)c2ccc3c(c2)OCO3)CC1 [JZL184] (first compound 0.4 µM, partner dose 1 µM) | 98.5 | 98.5 | 71.1 | 109 | 83.1 | 108 | 86.9 | 110 | 94.2 | 92.4 | 76.2 | 85.4 | 81.5 | 90.5 | 107 |
| N#Cc1c(O)c2c(-c3ccc(-c4ccccc4O)cc3)csc2[nH]c1=O + O=C(Oc1ccc([N+](=O)[O-])cc1)N1CCC(C(O)(c2ccc3c(c2)OCO3)c2ccc3c(c2)OCO3)CC1 [JZL184] (first compound 2 µM, partner dose 1 µM) | 102 | 117 | 113 | 101 | 101 | 97.2 | 99.3 | 75.7 | 102 | 119 | 91.7 | 112 | 91.7 | 103 | 92 |
| Cc1cc(SCc2sc(-c3ccc(C(F)(F)F)c(F)c3)nc2C)ccc1OCC(=O)O + Cn1cc(/C=C2\C(=O)Nc3cccnc32)c2ccccc21 [GW441756] (first compound 2 µM, partner dose 0.4 µM) | 93.6 | 93 | 106 | 104 | 87.9 | 105 | 84.5 | 84 | 88.7 | 103 | 107 | 88.7 | 90.4 | 108 | 118 |
| COc1ccc(-c2ccc3c(N4CCOCC4)nc(N4C[C@@H](C)O[C@@H](C)C4)nc3n2)cc1CO + O=C(Oc1ccc([N+](=O)[O-])cc1)N1CCC(C(O)(c2ccc3c(c2)OCO3)c2ccc3c(c2)OCO3)CC1 [JZL184] (first compound 0.02 µM, partner dose 1 µM) | 96.7 | 104 | 77.4 | 102 | 88 | 83 | 104 | 96.4 | 90.8 | 105 | 88.8 | 96 | 77.7 | 91.1 | 108 |
| COc1cc(Nc2ncc(F)c(Nc3ccc4c(n3)NC(=O)C(C)(C)O4)n2)cc(OC)c1OC [Tamatinib] + O=C(Oc1ccc([N+](=O)[O-])cc1)N1CCC(C(O)(c2ccc3c(c2)OCO3)c2ccc3c(c2)OCO3)CC1 [JZL184] (first compound 0.4 µM, partner dose 1 µM) | 89.4 | 99.4 | 95.5 | 98.6 | 91.7 | 64.1 | 87.2 | 76.1 | 89.4 | 79.3 | 87.5 | 71.8 | 87.2 | 100 | 86.2 |
| COC(=O)c1sccc1S(=O)(=O)Nc1ccc(Nc2ccccc2)cc1OC + Cc1cc(SCc2sc(-c3ccc(C(F)(F)F)c(F)c3)nc2C)ccc1OCC(=O)O [GW0742] (first compound 1 µM, partner dose 2 µM) | 95 | 95.3 | 92.3 | 109 | 102 | 107 | 87.9 | 96.7 | 92.9 | 89.8 | 94.9 | 89.6 | 101 | 94.8 | 95.6 |
| Cc1ccc(NC(=O)c2cccc(N(C)C)c2)cc1NC(=O)c1ccc(O)cc1 + O=C(Oc1ccc([N+](=O)[O-])cc1)N1CCC(C(O)(c2ccc3c(c2)OCO3)c2ccc3c(c2)OCO3)CC1 [JZL184] (first compound 2 µM, partner dose 1 µM) | 80.6 | 91.4 | 87.5 | 93 | 102 | 68.9 | 97.1 | 103 | 91.3 | 102 | 96.4 | 97.1 | 92.1 | 110 | 101 |
| CC(C)(C)c1cnc(CSc2cnc(NC(=O)C3CCNCC3)s2)o1 + C/C(O)=C(\C#N)C(=O)Nc1cc(Br)ccc1Br [LFM-A13] (first compound 0.01 µM, partner dose 2 µM) | 97.2 | 96.1 | 87.5 | 108 | 87.2 | 101 | 90.2 | 83 | 89.8 | 96.7 | 74.4 | 76.6 | 91.8 | 108 | 101 |
| CC(C)(C)c1cnc(CSc2cnc(NC(=O)C3CCNCC3)s2)o1 + O=C(Oc1ccc([N+](=O)[O-])cc1)N1CCC(C(O)(c2ccc3c(c2)OCO3)c2ccc3c(c2)OCO3)CC1 [JZL184] (first compound 0.01 µM, partner dose 1 µM) | 92.5 | 105 | 97.6 | 99.7 | 86.1 | 96 | 88.5 | 81.1 | 76.8 | 97.6 | 93.8 | 84.9 | 94.7 | 106 | 95.3 |
| COc1ccc(-c2ccc3c(N4CCOCC4)nc(N4C[C@@H](C)O[C@@H](C)C4)nc3n2)cc1CO + Cc1cc(SCc2sc(-c3ccc(C(F)(F)F)c(F)c3)nc2C)ccc1OCC(=O)O [GW0742] (first compound 0.02 µM, partner dose 2 µM) | 95.9 | 96.2 | 94 | 93.7 | 87.7 | 80.6 | 102 | 96.4 | 107 | 86.6 | 93.1 | 94.7 | 108 | 73 | 97.7 |
| COc1ccc2c(c1)CCC1C2CCC2(C)C(NCCCCCCN3C(=O)C=CC3=O)CCC12 (stereo not given) + C/C(O)=C(\C#N)C(=O)Nc1cc(Br)ccc1Br [LFM-A13] (first compound 0.4 µM, partner dose 2 µM) | 94.6 | 89.1 | 84.7 | 112 | 77.6 | 96.7 | 91.4 | 73.4 | 87 | 98 | 82.2 | 86.5 | 86.6 | 86.6 | 102 |
| COc1cc2c(Oc3ccc4[nH]c(C)cc4c3F)ncnc2cc1OCCCN1CCCC1 [cediranib] + O=C(Oc1ccc([N+](=O)[O-])cc1)N1CCC(C(O)(c2ccc3c(c2)OCO3)c2ccc3c(c2)OCO3)CC1 [JZL184] (first compound 0.4 µM, partner dose 1 µM) | 97.4 | 112 | 105 | 73.4 | 95.3 | 88.8 | 102 | 101 | 90 | 106 | 93.4 | 94 | 83.4 | 111 | 94.4 |
| O=S(=O)(c1ccccc1)N(CC(F)(F)F)c1ccc(C(O)(C(F)(F)F)C(F)(F)F)cc1 + Cc1cc(SCc2sc(-c3ccc(C(F)(F)F)c(F)c3)nc2C)ccc1OCC(=O)O [GW0742] (first compound 1.4 µM, partner dose 2 µM) | 93 | 101 | 101 | 98.9 | 86.5 | 107 | 103 | 107 | 95.6 | 93.1 | 101 | 72 | 87.4 | 140 | 120 |
| O=S(=O)(c1ccccc1)N(CC(F)(F)F)c1ccc(C(O)(C(F)(F)F)C(F)(F)F)cc1 + O=C(Oc1ccc([N+](=O)[O-])cc1)N1CCC(C(O)(c2ccc3c(c2)OCO3)c2ccc3c(c2)OCO3)CC1 [JZL184] (first compound 1.4 µM, partner dose 1 µM) | 95.8 | 102 | 105 | 113 | 84.8 | 93 | 77.4 | 109 | 81.7 | 87.7 | 90 | 91.5 | 80.9 | 110 | 109 |
| O=C(Nc1cccc(Cl)c1)Nc1ncc(CCNc2ncnc3ccsc23)s1 + O=C(Oc1ccc([N+](=O)[O-])cc1)N1CCC(C(O)(c2ccc3c(c2)OCO3)c2ccc3c(c2)OCO3)CC1 [JZL184] (first compound 0.0008 µM, partner dose 1 µM) | 96.7 | 94 | 101 | 95.9 | 79.7 | 100 | 88.1 | 92.9 | 72.9 | 51.3 | 94.2 | 89.9 | 86.8 | 93.8 | 98.1 |
| Cc1cc(SCc2sc(-c3ccc(C(F)(F)F)c(F)c3)nc2C)ccc1OCC(=O)O + O=C(O)C(=O)Nc1sc2c(c1C(=O)O)CCNC2 [TCS401] (first compound 2 µM, partner dose 1.66667 µM) | 105 | 91.3 | 87.1 | 94.3 | 94.5 | 106 | 91.9 | 86.4 | 93.8 | 102 | 112 | 91.9 | 102 | 82.5 | 115 |
| Cc1cc(SCc2sc(-c3ccc(C(F)(F)F)c(F)c3)nc2C)ccc1OCC(=O)O + COc1cc(N2CCC(N3CCN(C)CC3)CC2)ccc1Nc1ncc(Cl)c(Nc2ccccc2S(=O)(=O)C(C)C)n1 [NVP-TAE684] (first compound 2 µM, partner dose 0.08 µM) | 103 | 101 | 108 | 99.3 | 100 | 96.7 | 97.6 | 103 | 119 | 110 | 117 | 108 | 88.8 | 94.6 | 114 |
| C/C(O)=C(\C#N)C(=O)Nc1cc(Br)ccc1Br + O=c1cc(-c2cccc3c2Sc2ccccc2S3)oc(N2CCOCC2)c1 [KU55933] (first compound 2 µM, partner dose 1 µM) | 94.8 | 84.8 | 96.9 | 116 | 91.5 | 103 | 108 | 81.8 | 97 | 105 | 98.6 | 83.8 | 85.4 | 123 | 104 |
| Cc1cc(SCc2sc(-c3ccc(C(F)(F)F)c(F)c3)nc2C)ccc1OCC(=O)O + C/C(O)=C(\C#N)C(=O)Nc1cc(Br)ccc1Br [LFM-A13] (first compound 2 µM, partner dose 2 µM) | 96.1 | 112 | 74.9 | 116 | 97.6 | 101 | 107 | 102 | 92 | 99.8 | 111 | 95.8 | 70.8 | 95.2 | 117 |
| CN(C)S(=O)(=O)c1ccc2c(c1)/C(=C/c1cc3c([nH]1)CCCC3)C(=O)N2 + C/C(O)=C(\C#N)C(=O)Nc1cc(Br)ccc1Br [LFM-A13] (first compound 0.4 µM, partner dose 2 µM) | 96.8 | 88.3 | 90 | 111 | 84.7 | 90 | 82.5 | 92.9 | 75.1 | 72.7 | 111 | 73.1 | 90.3 | 94.5 | 111 |
| C/C(O)=C(\C#N)C(=O)Nc1cc(Br)ccc1Br + O=C(Oc1ccc([N+](=O)[O-])cc1)N1CCC(C(O)(c2ccc3c(c2)OCO3)c2ccc3c(c2)OCO3)CC1 [JZL184] (first compound 2 µM, partner dose 1 µM) | 95.2 | 97.5 | 92.6 | 89.5 | 87.9 | 111 | 84 | 91.8 | 84.8 | 93.8 | 82.4 | 97.5 | 78.1 | 83.8 | 120 |
| Nc1cccc2c1CN(C1CCC(=O)NC1=O)C2=O (stereo not given) [lenalidomide] + O=C(Oc1ccc([N+](=O)[O-])cc1)N1CCC(C(O)(c2ccc3c(c2)OCO3)c2ccc3c(c2)OCO3)CC1 [JZL184] (first compound 1 µM, partner dose 1 µM) | 110 | 103 | 137 | 112 | 112 | 93.1 | 92.2 | 112 | 92.1 | 107 | 95.3 | 90.9 | 92.9 | 104 | 114 |
| O=C(O)c1ccc(-c2c[nH]c3ncc(-c4ccccc4)cc23)cc1C1CCCC1 + O=C(Oc1ccc([N+](=O)[O-])cc1)N1CCC(C(O)(c2ccc3c(c2)OCO3)c2ccc3c(c2)OCO3)CC1 [JZL184] (first compound 0.16 µM, partner dose 1 µM) | 84.9 | 91.5 | 104 | 102 | 77.6 | 115 | 97 | 84.4 | 87.5 | 105 | 91.6 | 96.5 | 102 | 105 | 108 |
